The record followed here is PubChem BioAssay AID1508624 (National Center for Advancing Translational Sciences (NCATS), 2021).

The campaign covered roughly 48,000 compounds. About 120 (0.25%) were called active. Roughly 4% stayed inconclusive and do not appear here. The call rests on the fitted dose curve; in most records, active means well fitted activation curve with a large enough effect; inconclusive means small, poorly fitted or top-dose-only effect, or another doubt; inactive means no such curve, though single readings can be large or run the other way. This is one part of the list.

The experiment in a line: Primary qHTS for Identification of Small Molecule Activators of Huntingtin-Antisense Promoter Activity. Further: nearly all actives have a fitted effect of over 55% in size. The note with it: HEK293 HTT-AS promoter firefly luciferase reporter, 24 h; series mostly up to 57.5 µM; activity change, positive = activation: at the top concentration. The procedure, abridged:
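Firefly luciferase signal from promoter-reporter HEK293 cells was scaled between vehicle (0%) and zero RLU (-100%). Compounds were tested at final concentrations of up to 57.5 uM over 24 h at 37 degrees C. PTC124 at 50 uM final served as control inhibitor.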
Consider `CN1C(=O)c2ccccc2Sc2ccc(NC(=O)c3ccc(C#N)cc3)cc21`, for which the “activity change, positive = activation” value was inactive: -44.8%.

Turning to `COC(=O)C(CCSC)NC(=O)c1cc2c(n(-c3ccccc3)c1=O)CC(C)(C)CC2=O` (configuration not stated), the “activity change, positive = activation” value is inactive: -7.58%.

Take `CCOC(=O)Cn1c(=O)n(-c2ccc(Cl)cc2)c2nc(-c3ccc(Cl)cc3)nc(C(N)=O)c21`: the “activity change, positive = activation” value is inactive: -5.95%.

On to `Cc1nn(C(C)(C)C)c(OC(=O)c2c(F)cccc2F)c1Sc1ccccc1`, for which the “activity change, positive = activation” value is inactive: -28.5%.

Consider `COc1cc(CNc2ccc3[nH]c(=O)[nH]c3c2)cc(Cl)c1OCc1ccc(F)cc1`, for which the “activity change, positive = activation” value is inactive: -13.2%.

As for `COc1ccc(NC(=O)CN(c2ccc(C)cc2)S(=O)(=O)c2cccs2)cc1`, the “activity change, positive = activation” value is inactive: -3.17%.

In the case of `Cc1cccc(NS(=O)(=O)c2ccc3c(c2)CCCN3C(=O)C2CCC2)c1C`, the “activity change, positive = activation” value is inactive: -16.8%.

For `Cc1cc2c(cc1S(=O)(=O)Nc1cccc(Cl)c1C)OCCN2C`, the “activity change, positive = activation” value was inactive: -27.7%.

Turning to `COc1ccc(-c2nc3ccccc3o2)cc1NC(=O)c1ccc(-c2cccc(Cl)c2C)o1`, the “activity change, positive = activation” value was inactive: 1.48%.

As for `Cc1ccc(Cl)cc1N1CCN(C(=O)COCc2cc(-c3ccc4c(c3)OCO4)on2)CC1`, the “activity change, positive = activation” value is inactive: -11.1%.

Regarding `Cc1c(-c2nc(-c3ccc4c(c3)OCO4)no2)nnn1-c1cccc(C(F)(F)F)c1`, the “activity change, positive = activation” value is inactive: -0.678%.

As to `COc1cccc(NC(=O)C2CCN(c3nnc(-n4c(C)ccc4C)s3)CC2)c1`, the “activity change, positive = activation” value is inactive: 6.36%.

Take `Cc1ccc(CNC(=O)C2CCCN(Cc3nc(-c4cccc(C)c4)oc3C)C2)cc1` (configuration not stated): the “activity change, positive = activation” value was inactive: -33.6%.

Regarding `c1ccc(OCc2ccc(CCCN3CCOCC3)cc2)cc1`, the “activity change, positive = activation” value was inactive: 2.35%.

On to `O=c1cc(O)c(Cl)c[nH]1`, for which the activity change, positive = activation entry is “inactive”.

Regarding `Cc1ccc2ccc(Cl)cc2n1`, the “activity change, positive = activation” value was inactive: -2.11%.

Consider `CCN(CC)CCNC(=O)c1ccc2c(=O)n3nc(Nc4ccccc4)sc3nc2c1`, for which the “activity change, positive = activation” value was inactive: -9.74%.

In the case of `CC1=C(C(=O)Nc2cccc(C(F)(F)F)c2)C2(CCN(C(C)C)CC2)OC1=O`, the “activity change, positive = activation” value is inactive: -0.832%.

`CCCNC(=O)CSc1cn(CC(=O)N2CCCCCC2)c2ccccc12`: the “activity change, positive = activation” value is inactive: -22.1%.

Consider `O=C(CSc1nc2sc3c(c2c(=O)[nH]1)CCCC3)Nc1ccccc1F`, for which the “activity change, positive = activation” value was inactive: -20.6%.

As for `CCOc1ccc(-c2nnc(SCC(=O)Nc3cccc(Cl)c3C)o2)cc1`, the “activity change, positive = activation” value was inactive: -75.7%.

For the molecule `Cc1ccc(NC(=O)CCn2cnc3onc(-c4ccc(F)cc4)c3c2=O)c(Br)c1`, the “activity change, positive = activation” value was inactive: -1.46%.

Turning to `CC(C)Oc1ccc(CNS(=O)(=O)c2ccc(-c3cc(C(F)(F)F)on3)s2)cc1`, the “activity change, positive = activation” value was inactive: -2.29%.

Take `Cc1ccc2nc(CN3CCN(S(=O)(=O)c4ccc(F)cc4)CC3)oc2c1`: the “activity change, positive = activation” value is inactive: -15.5%.

Turning to `Cc1ccc2oc(C(=O)Nc3ccc(S(=O)(=O)Nc4nc(C)cc(C)n4)cc3)cc(=O)c2c1`, the activity change, positive = activation is inactive: -5.06% [at 11.5 µM, percent change from vehicle, -100% = no light].

In the case of `COc1ccc(CCNC(=O)CCn2c(=O)c3ccccc3n(Cc3ccccc3C)c2=O)cc1OC`, the “activity change, positive = activation” value was inactive: -11.9%.

For `Cc1ccc2nc(-c3ccco3)c(Nc3ccc4c(c3)OCCO4)n2c1`, the “activity change, positive = activation” value was inactive: 12.6%.

Turning to `COc1ccc(Cn2c(CCC(=O)Nc3ccccc3OC)nc3cccnc32)cc1`, the “activity change, positive = activation” value was inactive: -14.8%.

On to `CC(=O)Nc1ccc(NC(=O)C2Cc3ccccc3N2C(=O)c2ccccc2)cc1` (configuration not stated), for which the “activity change, positive = activation” value was inactive: -9.01%.

On to `COc1cccc2[nH]c(C(=O)NCc3ccc4c(c3)CCN4C(=O)c3ccc(F)cc3)cc12`, for which the “activity change, positive = activation” value is inactive: -37%.

For the molecule `CCc1c(C)nc2nc(-c3ccccc3)nn2c1NCc1ccc(C)cc1`, the “activity change, positive = activation” value is inactive: -25.3%.

For the molecule `COc1ccc(CNC(=O)c2ccc(-c3nc(CS(=O)c4ccc(C)cc4)c(C)o3)cc2)cc1` (configuration not stated), the “activity change, positive = activation” value is inactive: -30.2%.

Turning to `COc1ccc2c(c1)c(=O)c(C(=O)c1ccc(Cl)cc1)cn2CC(=O)Nc1ccc2c(c1)OCCO2`, the “activity change, positive = activation” value was inactive: -6.56%.

`CC(C)OCCCn1c(=O)c2ccccc2n2c(-c3ccccc3F)nnc12`: the “activity change, positive = activation” value is inactive: -21.6%.

Regarding `Cc1oc2ccc(O)c(CN3CCCC(C)C3)c2c1C(=O)Nc1ccccc1` (configuration not stated), the “activity change, positive = activation” value was inactive: -17.6%.

As to `O=C1CC2(CCCC2)CC(=O)N1CCCCN1CCN(c2ncccn2)CC1`, the “activity change, positive = activation” value is inactive: -9.55%.

`O=C(CSc1cn(CCNC(=O)c2c(F)cccc2F)c2ccccc12)Nc1ccccc1F`: the “activity change, positive = activation” value was inactive: -10%.

For `Cc1cc(C)c(NC(=O)Cc2ccc(-n3c(C)nc4cccnc43)cc2)c(C)c1`, the “activity change, positive = activation” value was inactive: -36.1%.

On to `CCOc1cc(C2C(C(=O)OC)=C(C)NC3=C2C(=O)c2ccccc23)cc(Br)c1OCC` (configuration not stated), for which the “activity change, positive = activation” value is inactive: -6.07%.

Regarding `COc1ccc(CNC(=O)CS(=O)(=O)c2cccc3nsnc23)cc1`, the “activity change, positive = activation” value was inactive: -17.3%.

For the molecule `Cc1ccc(OC(=O)CSc2nnc(-c3cccs3)o2)c(C)c1`, the “activity change, positive = activation” value is inactive: -8.69%.

Take `CC1=C(C(=O)OC2CCCCCC2)C(c2ccc(Cl)cc2)CC(=O)N1` (configuration not stated): the “activity change, positive = activation” value was inactive: -29%.

Consider `COc1ccc(Cl)cc1C(=O)NCc1nc(-c2cccc(C)c2)no1`, for which the activity change, positive = activation is inactive: 26.5% [at 11.5 µM, percent change from vehicle, -100% = no light].

In the case of `O=C(c1ccc([N+](=O)[O-])cc1)N1c2ncnn2C2(CCCCC2)[C@@H]2CCCC[C@@H]21`, the “activity change, positive = activation” value is inactive: -12.4%.

`CCOc1ccccc1CNc1nc2nc(C)c(CC(=O)OC)c(=O)n2[nH]1`: the “activity change, positive = activation” value was inactive: 0.62%.

Consider `Cc1cccc(-c2nc(C)c(CCNC(=O)C(=O)Nc3ccc(C)c(C)c3)s2)c1`, for which the “activity change, positive = activation” value was inactive: -1.11%.

On to `CN/C(=C\[N+](=O)[O-])NCCSCc1csc(CN(C)C)n1`, for which the “activity change, positive = activation” value is inactive: 0.149%.
